{"source": "the supplement of paper PMC8728848", "binders": {"B1": {"name": "Langerin (Homo sapiens) (protein)", "chain": "LDYPRFMGTISDVKTNVQLLKGRVDNISTLDSEIKKNSDGMEAAGVQIQMVNESLGYVRSQFLKLKTSVEKANAQIQILTRSWEEVSTLNAQIPELKSDLEKASALNTKIRALQGSLENMSKLLKRQNDILQVVSQGWKYFKGNFYYFSLIPKTWYSAEQFCVSRNSHLTSVTSESEQEFLYKTAGGLIYWIGLTKAGMEGDWSWVDDTPFNKVQSARFWIPGEPNNAGNNEHCGNIKAPSLQAWNDAPCDKTFLFICKRPYVPSEPV[in this place human IgG1 Fc]"}}, "assay_in_all_cases": "glycan array binding signal (z-score within array); higher = stronger binding", "settings_in_all_cases": "glycan notation: IUPAC condensed, linker removed", "key": {"[1]": {"biological_target": "GlcNAc(a1-4)Gal(b1-4)GalNAc", "in_short": "(§1)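 The binding signal is a Z-score computed within each array. Data were drawn from 3228 arrays in the Consortium for Functional Glycomics database, restricted to those with a known protein sequence. Scores were averaged over arrays of the same protein sequence at different concentrations or buffers, and over linkers, and negative values can be taken as non-binding.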"}, "[2]": {"biological_target": "GlcNAc(b1-2)Man(a1-3)[GlcNAc(b1-4)][GlcNAc(b1-2)Man(a1-6)]Man(b1-4)GlcNAc(b1-4)GlcNAc", "in_short": "as §1"}, "[3]": {"biological_target": "GlcNAc(b1-2)[GlcNAc(b1-4)]Man(a1-3)[GlcNAc(b1-4)][GlcNAc(b1-2)Man(a1-6)]Man(b1-4)GlcNAc(b1-4)GlcNAc", "in_short": "as §1"}, "GlcNAc(b1-3)Gal": {"biological_target": "GlcNAc(b1-3)Gal", "in_short": "as §1"}, "[4]": {"biological_target": "GlcNAc(b1-3)Gal(b1-4)GlcNAc", "in_short": "as §1"}, "[5]": {"biological_target": "GlcNAc(b1-3)Gal(b1-4)GlcNAc(b1-2)[GlcNAc(b1-3)Gal(b1-4)GlcNAc(b1-6)]Man(a1-6)[GlcNAc(b1-3)Gal(b1-4)GlcNAc(b1-2)Man(a1-3)]Man(b1-4)GlcNAc(b1-4)GlcNAc", "in_short": "as §1"}, "[6]": {"biological_target": "GlcNAc(b1-3)Gal(b1-4)GlcNAc(b1-3)Gal(b1-4)GlcNAc", "in_short": "as §1"}, "[7]": {"biological_target": "GlcNAc(b1-3)Gal(b1-4)GlcNAc(b1-3)Gal(b1-4)GlcNAc(b1-2)[GlcNAc(b1-3)Gal(b1-4)GlcNAc(b1-3)Gal(b1-4)GlcNAc(b1-6)]Man(a1-6)[GlcNAc(b1-3)Gal(b1-4)GlcNAc(b1-3)Gal(b1-4)GlcNAc(b1-2)Man(a1-3)]Man(b1-4)GlcNAc(b1-4)[Fuc(a1-6)]GlcNAc", "in_short": "as §1"}, "[8]": {"biological_target": "GlcNAc(b1-3)[GlcNAc(b1-6)]Gal(b1-4)GlcNAc", "in_short": "as §1"}, "Man(a1-2)Man(a1-3)Man": {"biological_target": "Man(a1-2)Man(a1-3)Man", "in_short": "as §1"}, "[9]": {"biological_target": "Man(a1-2)Man(a1-3)[Man(a1-2)Man(a1-6)]Man(a1-6)[Man(a1-2)Man(a1-2)Man(a1-3)]Man(b1-4)GlcNAc(b1-4)GlcNAc", "in_short": "as §1"}, "[10]": {"biological_target": "Man(a1-3)[Man(a1-6)]Man(b1-4)GlcNAc(b1-4)[Fuc(a1-6)]GlcNAc", "in_short": "as §1"}, "[11]": {"biological_target": "Neu5Ac(a2-3)Gal(b1-3)GlcNAc(b1-2)Man(a1-3)[GlcNAc(b1-4)][Neu5Ac(a2-3)Gal(b1-3)GlcNAc(b1-2)Man(a1-6)]Man(b1-4)GlcNAc(b1-4)GlcNAc", "in_short": "as §1"}, "[12]": {"biological_target": "Neu5Ac(a2-3)Gal(b1-3)GlcNAc(b1-3)Gal(b1-4)GlcNAc", "in_short": "as §1"}, "[13]": {"biological_target": "Neu5Ac(a2-3)Gal(b1-3)GlcNAc(b1-3)GalNAc", "in_short": "as §1"}, "[14]": {"biological_target": "Neu5Ac(a2-3)Gal(b1-3)GlcNAc(b1-6)GalNAc", "in_short": "as §1"}, "[15]": {"biological_target": "Neu5Ac(a2-3)Gal(b1-4)GlcNAc(b1-2)Man(a1-3)[Neu5Ac(a2-3)Gal(b1-4)GlcNAc(b1-2)Man(a1-6)]Man(b1-4)GlcNAc(b1-4)[Fuc(a1-6)]GlcNAc", "in_short": "as §1"}, "[16]": {"biological_target": "Neu5Ac(a2-3)Gal(b1-4)GlcNAc(b1-3)Gal(b1-3)GlcNAc", "in_short": "as §1"}, "[17]": {"biological_target": "Neu5Ac(a2-3)Gal(b1-4)GlcNAc(b1-3)Gal(b1-4)GlcNAc(b1-6)[Gal(b1-3)]GalNAc", "in_short": "as §1"}, "[18]": {"biological_target": "Neu5Ac(a2-3)Gal(b1-4)GlcNAc(b1-3)Gal(b1-4)[Fuc(a1-3)]GlcNAc", "in_short": "as §1"}, "[19]": {"biological_target": "Neu5Ac(a2-3)Gal6S(b1-4)GlcNAc", "in_short": "as §1"}, "[20]": {"biological_target": "Neu5Ac(a2-6)Gal(b1-4)GlcNAc", "in_short": "as §1"}, "[21]": {"biological_target": "Neu5Ac(a2-6)Gal(b1-4)GlcNAc(b1-2)[Neu5Ac(a2-6)Gal(b1-4)GlcNAc(b1-4)]Man(a1-3)[GlcNAc(b1-4)][Neu5Ac(a2-6)Gal(b1-4)GlcNAc(b1-4)Man(a1-6)]Man(b1-4)GlcNAc(b1-4)GlcNAc", "in_short": "as §1"}, "[22]": {"biological_target": "Neu5Gc(a2-3)Gal(b1-3)GlcNAc", "in_short": "as §1"}, "[23]": {"biological_target": "Neu5Gc(a2-3)Gal(b1-3)[Fuc(a1-4)]GlcNAc", "in_short": "as §1"}, "[24]": {"biological_target": "Neu5Gc(a2-3)Gal(b1-4)GlcNAc(b1-3)Gal(b1-4)GlcNAc(b1-2)Man(a1-3)[Neu5Gc(a2-3)Gal(b1-4)GlcNAc(b1-3)Gal(b1-4)GlcNAc(b1-2)Man(a1-6)]Man(b1-4)GlcNAc(b1-4)GlcNAc", "in_short": "as §1"}}, "note": "The entries come from a sample that favours the strongest signals as a whole.", "data": [{"binder": "B1", "values": [{"measurement": "glycan array binding signal (z-score)", "setting": "[1]", "value": -0.248}, {"measurement": "glycan array binding signal (z-score)", "setting": "[2]", "value": 1.15}, {"measurement": "glycan array binding signal (z-score)", "setting": "[3]", "value": 1.55}, {"measurement": "glycan array binding signal (z-score)", "setting": "GlcNAc(b1-3)Gal", "value": 2.38}, {"measurement": "glycan array binding signal (z-score)", "setting": "[4]", "value": 1.36}, {"measurement": "glycan array binding signal (z-score)", "setting": "[5]", "value": 2}, {"measurement": "glycan array binding signal (z-score)", "setting": "[6]", "value": 2.03}, {"measurement": "glycan array binding signal (z-score)", "setting": "[7]", "value": 2.39}, {"measurement": "glycan array binding signal (z-score)", "setting": "[8]", "value": 1.44}, {"measurement": "glycan array binding signal (z-score)", "setting": "Man(a1-2)Man(a1-3)Man", "value": 1.64}, {"measurement": "glycan array binding signal (z-score)", "setting": "[9]", "value": 2.11}, {"measurement": "glycan array binding signal (z-score)", "setting": "[10]", "value": 1.77}, {"measurement": "glycan array binding signal (z-score)", "setting": "[11]", "value": 0.177}, {"measurement": "glycan array binding signal (z-score)", "setting": "[12]", "value": -0.965}, {"measurement": "glycan array binding signal (z-score)", "setting": "[13]", "value": -0.345}, {"measurement": "glycan array binding signal (z-score)", "setting": "[14]", "value": -0.95}, {"measurement": "glycan array binding signal (z-score)", "setting": "[15]", "value": -0.976}, {"measurement": "glycan array binding signal (z-score)", "setting": "[16]", "value": -1.03}, {"measurement": "glycan array binding signal (z-score)", "setting": "[17]", "value": -0.412}, {"measurement": "glycan array binding signal (z-score)", "setting": "[18]", "value": -0.997}, {"measurement": "glycan array binding signal (z-score)", "setting": "[19]", "value": 2.2}, {"measurement": "glycan array binding signal (z-score)", "setting": "[20]", "value": -0.544}, {"measurement": "glycan array binding signal (z-score)", "setting": "[21]", "value": -0.343}, {"measurement": "glycan array binding signal (z-score)", "setting": "[22]", "value": 0.6}, {"measurement": "glycan array binding signal (z-score)", "setting": "[23]", "value": -0.497}, {"measurement": "glycan array binding signal (z-score)", "setting": "[24]", "value": -0.443}]}]}
